PubChem BioAssay AID1508624 (National Center for Advancing Translational Sciences (NCATS), 2021)
Among all 48,000 compounds or so, about 120 (0.25%) were called active. Roughly 4% stayed inconclusive and do not appear here. The call rests on the fitted dose curve; in most records, active means well fitted activation curve with a large enough effect; inconclusive means small, poorly fitted or top-dose-only effect, or another doubt; inactive means no such curve, though single readings can be large or run the other way. The list shows a part of the results.

Test: Primary qHTS for Identification of Small Molecule Activators of Huntingtin-Antisense Promoter Activity; further: nearly all actives have a fitted effect of over 55% in size
Settings: HEK293 HTT-AS promoter firefly luciferase reporter, 24 h; series mostly up to 57.5 µM; activity change, positive = activation: at the top concentration
In short: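 Luminescence was read after Dual-Glo reagent and a 10 min room-temperature incubation. Values were normalized to vehicle (0% activity) and zero RLU (-100% activity). Reporter HEK293 cells had been exposed to compounds (up to 57.5 uM final) for 24 h.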

Activity change, positive = activation, inactive:
CC(=O)[C@@]1(O)CC[C@H]2[C@@H]3CCC4=CC(=O)CC[C@]4(C)[C@H]3CC[C@@]21C -11.9%
CC(=O)c1cccc(NC(=O)CCn2nc(C)c(S(=O)(=O)N3CCCCC3)c2C)c1 -12.1%
O=C(NCCc1ccc(Cl)cc1)c1cnc2sc(N3CCCC3)nn2c1=O -19.3%
CCc1ccccc1NC(=O)C1CCCN(S(=O)(=O)c2ccc3[nH]c(=O)ccc3c2)C1 (centres undefined) -21.8%
Cc1ccc(OCC(=O)NCC(=O)OCc2cc(=O)n3nc(CC(C)C)sc3n2)cc1 2.22%
O=C(c1cccs1)N1CCCc2cc(NS(=O)(=O)c3cc(F)ccc3F)ccc21 -27.9%
COc1ccc(OC)c(CCNC(=O)CCCn2c(=O)c3cccn3c3cccnc32)c1 1.09%
CCOc1ccc(CNS(=O)(=O)c2ccc3c(c2)CC(C)N3C(C)=O)cc1OC (centres undefined) -29.3%
O=C(NCc1ccccc1)c1ccc(CS(=O)(=O)c2c(Cl)cccc2Cl)o1 -16%
COc1ccc(N2CCN(C(=O)CSc3nc(-c4ccccc4)no3)CC2)cc1 20.6%
Cc1ccc(NC(=O)Cn2nc(C)c3nn(-c4ccc(Cl)cc4)c(C)c3c2=O)cc1F -31.1%
Cc1c(CN2CCN(C(=O)C(C)C)CC2)sc2c(N3CCOCC3)nc(-c3cnc(N)nc3)nc12 -36.2%
COc1ccc(-c2n[nH]c3c2C(c2ccccn2)N(C)C3=O)cc1 (centres undefined) -11.3%
COc1ccc(-n2nc3c(N4CCC(C(=O)NC5CCCCC5)CC4)nnc(C)c3c2C)cc1 -6.58%
Cc1ccccc1Cn1c(SCc2ccc(C(=O)N3CCCCC3)cc2)nc2ccncc21 -12.5%
O=S(=O)(NCCc1csc(-c2cccc(F)c2)n1)c1cc(F)ccc1F -17%
COc1cc(NC(=O)CCNC(=O)Cn2ccc3ccccc3c2=O)cc(OC)c1OC 13.6%
COc1ccc(CCNC(=O)c2cc(Nc3ccccc3)nc3ccccc23)cc1OC -20.8%
O=C1CCc2cc(S(=O)(=O)NCc3ccccc3)cc3c2N1CC3 -1.15%
CCCCCCCCCCOc1cc2c(=O)c(C(=O)OCC)c[nH]c2cc1OCC -6.19% [at 6 µM, percent change from vehicle, -100% = no light]
CCn1c(C(=O)Nc2ccccc2C(=O)OC)cc2sc(Cl)cc21 5.96%
COC(=O)c1c(NC(=O)CCCOc2ccc(C)cc2)sc2c1CCCC2 -18.5%
Cc1nc2c(c(C)nn2-c2ccccc2)c(C)c1CCC(=O)Nc1ccccc1 -8.46%
O=C(Nc1ccc(S(=O)(=O)N(Cc2ccccc2)c2ccccc2)cc1)c1ccccc1F 10.9% [at 11.5 µM, percent change from vehicle, -100% = no light]
